These results are taken from article PMC5892938.

The list shows a part of the results. The exact form of the protein is not confirmed.

In this assay the target is GST-SBP-ILF3 (Homo sapiens) (UniProt Q12906). Briefly: targeted RNA Bind-n-Seq. The settings on record: RBNS binding buffer: 25 mM Tris pH 7.5, 150 mM KCl, 3 mM MgCl2, 0.1% Tween, 0.5 mg/mL BSA, 1 mM DTT; 27 nM protein, 750 pM RNA pool; temperature not stated; high values mean tight binding; sequences stand for … in GGGUAAAAGCGAGGUGAA…CGGGACAAGUAUUAUGGG
As for “GGUGUUGGUGUUGGAGCCUAACACCAGCGC [gtspaired]”, the binding signal (log2 fold change) is -0.448.

Regarding “UUUUUUUUUUGAGACUGAAACAGUCUCCGG [tttttgagapaired]”, the binding signal (log2 fold change) came to 0.155.

Take “GUGUGGUGUGUUGGUUCCUAACACAUCACA [gtspaired]”: the binding signal (log2 fold change) was -0.318.

On to “UUUUUUUUUUGAGAUGGACACCAUCUCCUA [tttttgagapaired]”, for which the binding signal (log2 fold change) came out at 0.161.

For “UUUUUUUUUUGAGAGUGCGGCAUUCUCCAG [tttttgagapaired]”, the binding signal (log2 fold change) amounted to 0.449.

As to “UUUUUUUUUUGAGAACGGGGCGUUCUCCGG [tttttgagapaired]”, the binding signal (log2 fold change) stood at 0.39.

“UUUUUUUUUUGAGAUGGGCUCCAUCUCCGG [tttttgagapaired]”: the binding signal (log2 fold change) was 0.5.

“GUUGGUGGUGUUGGUACCUAACACCGCCGA [gtspaired]”: the binding signal (log2 fold change) was -0.691.

“GUGGUUGGUGUUGGCGCCUAACACCGACCG [gtspaired]”: the binding signal (log2 fold change) was -0.424.

With “UUUUUUUUUUGAGAUGGCCGCCAUCUCCAG [tttttgagapaired]”, the binding signal (log2 fold change) stood at 0.792.

With “UUCCUUCUUCCUCCUUGGGAGGGAGAGGGA [ctspaired]”, the binding signal (log2 fold change) is -0.259.

Regarding “UUUUUUUUUUGAGACUGAAUCAGUCUCCUA [tttttgagapaired]”, the binding signal (log2 fold change) worked out at 0.00366.

“GUUGUGUGUGUUGGACCCUAACACACGCGA [gtspaired]”: the binding signal (log2 fold change) was -0.2.

For “UUUUUUUUUUGAGACUGGGACAGUCUUCUG [tttttgagapaired]”, the binding signal (log2 fold change) turned out to be 0.781.

As for “UUUUUUUUUUGAGACUGAGCCAGUCUCCAG [tttttgagapaired]”, the binding signal (log2 fold change) turned out to be 0.383.

In the case of “UUUUUUUUUUGAGACCGAUUCGGUUUCCGG [tttttgagapaired]”, the binding signal (log2 fold change) was determined as 0.34.

In the case of “GGUGUGUGUGUUGGAUUCUAACACACGCGC [gtspaired]”, the binding signal (log2 fold change) was -0.476.

With “UUUUUUUUUUGAGACGGGUACCGUCUCCGG [tttttgagapaired]”, the binding signal (log2 fold change) came to 0.327.

On to “UUUUUUUUUUGAGAUGGGGUCCAUCUCCUA [tttttgagapaired]”, for which the binding signal (log2 fold change) was 0.275.

On to “UUUUUUUUUUGAGAGCGGAGCGCUCUUCUG [tttttgagapaired]”, for which the binding signal (log2 fold change) is 0.229.

Turning to “GGUGUGUGUGUUGGAGCCUAACACAUACAC [gtspaired]”, the binding signal (log2 fold change) was -0.161.

With “GUGUGGUGUGUUGGAUCCUAACACAUCACG [gtspaired]”, the binding signal (log2 fold change) was -0.667.

Take “UUUUUUUUUUGAGAGCGUCACGCUCUUCUA [tttttgagapaired]”: the binding signal (log2 fold change) stood at 0.275.

In the case of “GUGUGUUGUGUUGGCUCCUAACACAGCACG [gtspaired]”, the binding signal (log2 fold change) was -0.623.

Regarding “UUUUUUUUUUGAGACGGACCCCGUCUCCGG [tttttgagapaired]”, the binding signal (log2 fold change) amounted to 0.873.

For “UUUUUUUUUUGAGAACGUGACGUUCUCCGG [tttttgagapaired]”, the binding signal (log2 fold change) came to 0.206.

“UUUUUUUUUUGAGAGGGCUUCCCUCUCCAG [tttttgagapaired]”: the binding signal (log2 fold change) is 0.404.

As for “UUUUUUUUUUGAGACCGAACCGGUCUCCUA [tttttgagapaired]”, the binding signal (log2 fold change) is -0.0587.

On to “GUGUGUGGUGUUGGAGUCUAACACCGCGCG [gtspaired]”, for which the binding signal (log2 fold change) is -0.74.

With “UUUUUUUUUUGAGAGUGAGUCACUCUCCUA [tttttgagapaired]”, the binding signal (log2 fold change) was -0.00193.

With “UUUUUUUUUUGAGAUGGGUCCCAUCUCCAG [tttttgagapaired]”, the binding signal (log2 fold change) amounted to 0.659.

In the case of “GUGUGGUGUGUUGGCAUCUAACACACCGCG [gtspaired]”, the binding signal (log2 fold change) was -0.672.

Take “UUUUUUUUUUGAGAUGGGCGCCAUCUCCAG [tttttgagapaired]”: the binding signal (log2 fold change) came out at 0.616.

As for “UUUUUUUUUUGAGACUGUUUCAGUCUUCUG [tttttgagapaired]”, the binding signal (log2 fold change) turned out to be 0.0515.

In the case of “UUUUUUUUUUGAGAUGGAUCCCAUCUUCUA [tttttgagapaired]”, the binding signal (log2 fold change) is 0.0611.

On to “UUUUUUUUUUGAGAGCGUAGCGUUCUCCGG [tttttgagapaired]”, for which the binding signal (log2 fold change) was determined as 0.333.

Consider “UUUUUUUUUUGAGACCGGAACGGUUUCCUG [tttttgagapaired]”, for which the binding signal (log2 fold change) is 0.595.

Turning to “UUUUUUUUUUGAGAGUGAUACACUCUCCAG [tttttgagapaired]”, the binding signal (log2 fold change) came to 0.0737.

Consider “GGUUGUGGUGUUGGCCCCUAACACCGCGAC [gtspaired]”, for which the binding signal (log2 fold change) was -0.254.

“GUGUGGUGUGUUGGCUUCUAACACAUCACG [gtspaired]”: the binding signal (log2 fold change) was -0.382.

On to “UUUUUUUUUUGAGACGGAUGCCGUCUCCAG [tttttgagapaired]”, for which the binding signal (log2 fold change) worked out at 0.492.

For the sequence “UUUUUUUUUUGAGACUGUUUCAGUUUCCGG [tttttgagapaired]”, the binding signal (log2 fold change) came out at 0.289.

With “GGUUGUGGUGUUGGACUCUAACACCGCAGC [gtspaired]”, the binding signal (log2 fold change) was -0.795.

For “GUGUGGUGUGUUGGUACCUAACACACUACG [gtspaired]”, the binding signal (log2 fold change) is -0.886.

On to “UUUUUUUUUUGAGACCGAUUCGGUCUUCUA [tttttgagapaired]”, for which the binding signal (log2 fold change) is -0.114.

As to “UUUUUUUUUUGAGAGGGAUGCCCUUUCCGG [tttttgagapaired]”, the binding signal (log2 fold change) came to 0.319.

Regarding “GUGUGUUGUGUUGGUCUCUAACACAACACG [gtspaired]”, the binding signal (log2 fold change) is -0.295.

As to “UUUUUUUUUUGAGAUCGGUGCGAUCUUCUG [tttttgagapaired]”, the binding signal (log2 fold change) worked out at 0.437.

Regarding “UUUUUUUUUUGAGAACGUACCGUUCUCCUA [tttttgagapaired]”, the binding signal (log2 fold change) was 0.202.

Regarding “UUUUUUUUUUGAGAUCGUAGCGAUCUCCUA [tttttgagapaired]”, the binding signal (log2 fold change) stood at 0.131.

Regarding “UUUUUUUUUUGAGAGGGUAGCCCUCUCCAG [tttttgagapaired]”, the binding signal (log2 fold change) was determined as 0.791.

Turning to “UUUUUUUUUUGAGACGGUCUCCGUCUCCGG [tttttgagapaired]”, the binding signal (log2 fold change) amounted to 0.721.

“UUUUUUUUUUGAGACUGAACCAGUCUCCGG [tttttgagapaired]”: the binding signal (log2 fold change) was found to be 0.0471.

As for “GGUGUGUGUGUUGGCCCCUAACACAUACGC [gtspaired]”, the binding signal (log2 fold change) came out at 0.215.

For “GUUGUGUGUGUUGGCUCCUAACACACGCAG [gtspaired]”, the binding signal (log2 fold change) was -0.453.

For “UUUUUUUUUUGAGAGGGGUGCCCUCUUCUA [tttttgagapaired]”, the binding signal (log2 fold change) was 0.667.

As to “UUUUUUUUUUGAGACCGAAUCGGUUUCCUA [tttttgagapaired]”, the binding signal (log2 fold change) worked out at 0.512.

As for “GUGUGUUGUGUUGGAAUCUAACACAGCACG [gtspaired]”, the binding signal (log2 fold change) was -0.719.

Regarding “GUUGUGUGUGUUGGCCCCUAACACACGCGA [gtspaired]”, the binding signal (log2 fold change) was -0.181.

Take “UUUUUUUUUUGAGACGGGAGCCGUCUUCUA [tttttgagapaired]”: the binding signal (log2 fold change) came out at 0.436.

With “GUGUUGUGUGUUGGCACCUAACACACAGCA [gtspaired]”, the binding signal (log2 fold change) was -0.477.

On to “UUUUUUUUUUGAGACCGAAUCGGUCUCCAG [tttttgagapaired]”, for which the binding signal (log2 fold change) worked out at 0.49.

Take “UUUUUUUUUUGAGAAGGUAUCCUUCUCCGG [tttttgagapaired]”: the binding signal (log2 fold change) was 0.0261.

With “UUCCUUCUUCCUCCAAGGGAGGGAGAGGGA [ctspaired]”, the binding signal (log2 fold change) came out at 0.0668.

For “GGUGUGUGUGUUGGUGCCUAACACAUACAC [gtspaired]”, the binding signal (log2 fold change) was -0.399.

For the sequence “UUUUUUUUUUGAGAGCGAAACGUUCUCCAG [tttttgagapaired]”, the binding signal (log2 fold change) is -0.0109.

“GUGGUGUGUGUUGGAGCCUAACACACAUCG [gtspaired]”: the binding signal (log2 fold change) is -0.68.

Turning to “GGUGUGUGUGUUGGCCUCUAACACAUAUAC [gtspaired]”, the binding signal (log2 fold change) was -0.751.

As for “GUUGGUGGUGUUGGCACCUAACACCAUCAA [gtspaired]”, the binding signal (log2 fold change) was -0.244.

In the case of “GUGUGUUGUGUUGGCUCCUAACACAGCGCG [gtspaired]”, the binding signal (log2 fold change) was -0.64.

Take “UUUUUUUUUUGAGAGUGAGGCACUCUCCUG [tttttgagapaired]”: the binding signal (log2 fold change) was 0.477.

On to “GUGGUGUGUGUUGGUUCCUAACACAUACUA [gtspaired]”, for which the binding signal (log2 fold change) is -0.524.

Consider “UUUUUUUUUUGAGAGCGAACCGCUCUCCGG [tttttgagapaired]”, for which the binding signal (log2 fold change) turned out to be 0.24.

For “GGUGGUUGUGUUGGUAUCUAACACAGCCGC [gtspaired]”, the binding signal (log2 fold change) was -0.631.

On to “UUUUUUUUUUGAGAGCGUGGCGCUCUCCUG [tttttgagapaired]”, for which the binding signal (log2 fold change) is 0.434.

Consider “GUGGUGUGUGUUGGCCUCUAACACACGCCG [gtspaired]”, for which the binding signal (log2 fold change) was -0.705.

Regarding “GUGGUGUGUGUUGGCUUCUAACACAUACCA [gtspaired]”, the binding signal (log2 fold change) was -0.467.

Consider “UUUUUUUUUUGAGAGGGUGGCCCUCUCCUA [tttttgagapaired]”, for which the binding signal (log2 fold change) turned out to be 0.726.

Regarding “UUUUUUUUUUGAGAUGGUGACUAUCUCCAG [tttttgagapaired]”, the binding signal (log2 fold change) came out at 0.461.

Regarding “UUUUUUUUUUGAGAGCGUCACGCUCUCCUG [tttttgagapaired]”, the binding signal (log2 fold change) stood at 0.382.

In the case of “UUUUUUUUUUGAGAUGGAGACCAUCUUCUA [tttttgagapaired]”, the binding signal (log2 fold change) was 0.125.

On to “UUUUUUUUUUGAGAGGGAGUCCCUCUCCGG [tttttgagapaired]”, for which the binding signal (log2 fold change) worked out at 0.836.

For “UUCCUUCUUCCUCCACUGGAGGGAGAGGGA [ctspaired]”, the binding signal (log2 fold change) is -0.338.

“GUGGUGUGUGUUGGCCCCUAACACACGCCG [gtspaired]”: the binding signal (log2 fold change) is -0.29.

As for “GUGUGUGGUGUUGGCCUCUAACACCGCACG [gtspaired]”, the binding signal (log2 fold change) was -0.521.

As for “GGUUGGUGUGUUGGCGUCUAACACAUCAAC [gtspaired]”, the binding signal (log2 fold change) was -0.313.

In the case of “GGUUGUGGUGUUGGCCCCUAACACCGCAGC [gtspaired]”, the binding signal (log2 fold change) was -0.353.

With “UUUUUUUUUUGAGACCGCUCCGGUCUCCUA [tttttgagapaired]”, the binding signal (log2 fold change) is 0.758.

Regarding “UUCCUUCUUCCUCCGCCGGAGGGAGAGGGA [ctspaired]”, the binding signal (log2 fold change) was -0.368.

As for “GUGUGUGGUGUUGGUAUCUAACACCGCGCA [gtspaired]”, the binding signal (log2 fold change) is -0.613.

For “GUGGUGUGUGUUGGACCCUAACACACGCCG [gtspaired]”, the binding signal (log2 fold change) was -0.229.

In the case of “UUUUUUUUUUGAGACGGGCCCCGUCUCCUA [tttttgagapaired]”, the binding signal (log2 fold change) stood at 0.736.

Regarding “UUUUUUUUUUGAGACCGGGACGGUUUCCUA [tttttgagapaired]”, the binding signal (log2 fold change) worked out at 0.48.

Turning to “GGUUGGUGUGUUGGAACCUAACACAUCGAC [gtspaired]”, the binding signal (log2 fold change) was -0.559.

As for “GUGUGGUGUGUUGGUGCCUAACACACUACA [gtspaired]”, the binding signal (log2 fold change) was -0.275.

For the sequence “UUUUUUUUUUGAGACGGGAACUGUCUCCGG [tttttgagapaired]”, the binding signal (log2 fold change) is 0.69.

As for “UUUUUUUUUUGAGACGGAUACCGUCUCCGG [tttttgagapaired]”, the binding signal (log2 fold change) was 0.397.

With “GUGGUGUGUGUUGGCGUCUAACACACGCCG [gtspaired]”, the binding signal (log2 fold change) is -0.409.

Turning to “UUUUUUUUUUGAGACGGACCCCGUCUCCAG [tttttgagapaired]”, the binding signal (log2 fold change) came out at 0.834.

For “UUUUUUUUUUGAGACUGUCACAGUCUUCUA [tttttgagapaired]”, the binding signal (log2 fold change) stood at 0.0496.

With “UUUUUUUUUUGAGAGCGAGGCGCUCUUCUA [tttttgagapaired]”, the binding signal (log2 fold change) came to 0.539.

With “UUUUUUUUUUGAGACGGAUGCCGUUUCCAG [tttttgagapaired]”, the binding signal (log2 fold change) is 0.553.

Regarding “UUUUUUUUUUGAGAGCGUGGCGCUCUCCGG [tttttgagapaired]”, the binding signal (log2 fold change) was 0.181.
